ChEMBL document CHEMBL1201862, “PubChem BioAssay data set” (2004)
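How tested: cells in 96-well plates exposed to compound for 48 hours at five concentrations. GI50 is the concentration that inhibits growth by half.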 Active and inactive are the calls of the source. No stated cut-off is given here; in the data, active = GI50 up to about 1.1 µM and inactive = higher.

These molecules were tested on NCI-H322M (assay: NCI tumour cell line growth inhibition, 48 h).

Row | SMILES | GI50
1 | CCOC(=O)c1cc2c(C(=O)c3ccc([N+](=O)[O-])cc3)c(C(C)=O)ccc2[nH]1 | inactive: 72.3 µM
2 | CC(=O)OCC1=CC2OC(=O)C3=COC(OC4OC(CO)C(O)C(O)C4O)C1C32 (centres undefined) | inactive: > 100 µM
3 | c1ccc(C2N=C(c3ccccn3)C(c3ccccn3)=NC2c2ccccc2)cc1 (centres undefined) | inactive: > 100 µM
4 | C/C=C(\C)C(=O)O[C@@H]1CC(C)(C)CC2C3=CCC4[C@]56CC[C@](O)(OC5)C(C)(C)C6CC[C@@]4(C)C3(C)CC[C@]21C(=O)O (some centres undefined) | inactive: > 100 µM
5 | O=C(CC(=O)CC(O)(C(F)(F)F)C(F)(F)F)CC(O)(C(F)(F)F)C(F)(F)F | inactive: > 10 µM
6 | Nc1nc(Cl)cc(NCC2(CO)CC(CCc3ccccc3)C2)n1 (centres undefined) | inactive: > 100 µM
7 | Cc1cn(C2CC(OC(=O)c3ccc(Cl)cc3)C(COC(=O)c3ccc(Cl)cc3)O2)c(=O)[nH]c1=O (centres undefined) | inactive: > 100 µM
8 | COC(=O)c1ccccc1C1=C([N+](=O)[O-])C(c2ccccc2)C(C#N)=C(N)O1 (centres undefined) | inactive: > 100 µM
9 | C[C@H]1/C(=C/C(=O)OCCN(C)C)CC[C@H]2[C@H]1C(=O)C[C@H]1C(C)(C)[C@@H](O)CC[C@]21C | inactive: > 100 µM
10 | O=[N+]([O-])c1ccc(NN/N=N/c2ccc(-c3nc4ccccc4s3)cc2)c([N+](=O)[O-])c1 | inactive: 23.9 µM
11 | CN(C)c1ccc(/C=C/c2ccnc3ccccc23)cc1 | inactive: > 100 µM
12 | COc1ccc(-c2cc(=O)c3c(OC)c(OC)c(OC)c(OC)c3o2)c(OC)c1 | inactive: 30.5 µM
13 | CCOc1ccc(NCC(=O)N2CC(=O)Nc3ccccc32)cc1 | inactive: > 100 µM
14 | COc1ccc(N2C(=O)c3cc([N+](=O)[O-])cnc3S2(=O)=O)cc1 | inactive: > 100 µM
15 | COc1c(OC)c(OC)c2c(c1OC)c(=O)c1ccccc1n2C [MELICOPICINE] | inactive: > 100 µM
16 | O=C(CC(c1ccccc1)C1C(=O)NC(=S)NC1=O)c1ccc([N+](=O)[O-])cc1 (centres undefined) | inactive: > 100 µM
17 | C1CCSCCCCSCCCCSCCCCSC1 | inactive: > 100 µM
18 | COCOC1/C=C/CCCCC2=C(C)C=C(C1)O2 (centres undefined) | inactive: > 100 µM
19 | COc1ccc(C2C(C#N)=C(O)NC(O)=C2C#N)cc1OC | inactive: > 100 µM
20 | CC(C)C1=CC(=O)C(C)(C2C(O)CC3(C)C4CC=C5C(CCC(OC6OC(CO)C(O)C(O)C6OC6OC(C)C(O)C(O)C6O)C5(C)C)C4(C)C(=O)CC23C)O1 (centres undefined) | inactive: > 100 µM
21 | CCN(c1ccc(Br)cc1)c1c(Br)c(=O)nc2ccccn12 | inactive: > 100 µM
22 | N#CC(C#N)=C1CCCCc2ccc([N+](=O)[O-])cc21 | inactive: > 100 µM
23 | C[n+]1c2ccccc2n2c3ccccc3c(NCCCN3CCOCC3)c(C#N)c21 | inactive: 1.45 µM

Row | SMILES | GI50
24 | CCc1cccc(C(C)CC)c1NC(=O)C(=O)Cc1nc2ccccc2o1 (centres undefined) | inactive: > 50 µM
25 | Cn1c2ccccc2n2c3nc4ccccc4nc3c(C#N)c12 | inactive: 98.4 µM
26 | COC(=O)CCC(=O)NC1=C(Nc2ccc(OC)cc2)C(=O)c2ccccc2C1=O | inactive: 16.5 µM
27 | CC(C)c1ccccc1SC1CC(=O)CC(Sc2ccccc2C(C)C)C12O[C@H](c1ccccc1)[C@@H](c1ccccc1)O2 (some centres undefined) | inactive: > 100 µM
28 | COc1ccc(C2=Nc3c(nc(SC)[nH]c3=O)NC(c3ccccc3)C2)cc1 (centres undefined) | inactive: 39.1 µM
29 | CCOC(=O)C1(C#N)C2(C#N)C(N)=NC(ON=C(C)C)(ON=C(C)C)C12C#N (centres undefined) | inactive: > 100 µM
30 | COC(=O)[C@]12CC[C@H]3CN(C(=O)OCc4ccccc4)[C@H]([C@H]31)[C@H](c1ccccc1)N2 | inactive: > 100 µM
31 | O=C1Cc2c([nH]c3ccc(Br)cc23)-c2cc(O)c(O)cc2N1 | inactive: > 100 µM
32 | CCOC(=O)C1=c2[nH]c3cccc4cccc(c43)n2C=C(C(C)=O)C1CC(C)=O (centres undefined) | inactive: > 100 µM
33 | CCn1c(C)nn2c(=O)c3ccccc3nc2c1=O | inactive: > 100 µM
34 | O=C(O)C1=C(C(=O)O)N(c2ccncc2)C(c2ccco2)=CC1c1ccccc1[N+](=O)[O-] (centres undefined) | inactive: 16.6 µM
35 | CSC12c3cc(C)n(-c4ccc([N+](=O)[O-])cc4)c3CC(C)(C)CN1C(=O)C2Oc1ccccc1 (centres undefined) | inactive: 27.9 µM
36 | O=Cc1c(-c2ccccc2)nc2ccccc2c1O | inactive: 46.1 µM
37 | CCOc1cn(C2CC(O)C(CO)O2)c(=O)[nH]c1=O (centres undefined) | inactive: > 100 µM
38 | COc1ccc2c(c1)O[C@H]1c3ccc(O)cc3OC[C@@H]21 | inactive: 35.7 µM
39 | COC1(OC)CC2CCCCC2=C(C)N1S(=O)(=O)c1ccccc1 (centres undefined) | inactive: > 100 µM
40 | Cc1nc(N(C(C)C)C(C)C)c(C(C)C)o1 | inactive: > 100 µM
41 | O=C(Nc1ccc(C(F)(F)F)cc1[N+](=O)[O-])C(=O)Nn1c(S)nc2ccccc2c1=O | inactive: > 100 µM
42 | CCCCN1C(=O)c2c(-c3sccc3N)sc(-c3sccc3N)c2C1=O | inactive: 27.2 µM
43 | CCOC(=O)/C=C(\C(=O)OCC)n1ccc(=O)n(CC(=O)OCC)c1=O | inactive: 17.3 µM
44 | COC(=O)C(C(=O)C(=O)Nc1ccc([N+](=O)[O-])cc1)c1nc2cc(C)c(C)cc2nc1O (centres undefined) | inactive: > 100 µM
45 | COc1cc(/C=C(\OC(C)=O)c2ccc3c(c2)OCO3)cc(OC)c1OC | inactive: 22.5 µM
46 | CCCC(=O)Nc1cc(/C=C/C(=O)N2C[C@H]3C[C@@]34C2=CC(=O)c2[nH]cc(C)c24)n(C)c1 | active: < 0.0025 µM

Row | SMILES | GI50
47 | O=C([O-])C(O)C(O)C(=O)O.[K+] (centres undefined) [POTASSIUM HYDROGENTARTRATE] | inactive: > 100 µM
48 | Cc1ccc(/N=c2/oc3c(ccc4ccccc43)nc2Nc2ccc(C)cc2)cc1 | inactive: > 100 µM
49 | O=C(c1ccccc1)c1cccc(C(=O)c2ccccc2)c1 | inactive: > 100 µM
50 | C1=CC(=[N+]2N=C(c3ccccc3)CC2c2ccccc2)C=CC1=C1SC(c2ccccc2)(c2ccccc2)c2ccccc21.[O-][Cl+3]([O-])([O-])[O-] (centres undefined) | inactive: > 100 µM
51 | Cc1sc2nc(-c3ccc([N+](=O)[O-])cc3)c(/C=N/N=C(N)N)n2c1C | inactive: 1.42 µM
52 | O=c1[nH]ccc2c1ccn2C1CC(O)C(CO)O1 (centres undefined) | inactive: > 100 µM
53 | COc1ccc(NC(=O)CC(=O)NN2C(=O)/C(=C/c3ccc(N(CCC#N)CCC#N)cc3C)N=C2/C=C\c2ccccc2)cc1 | inactive: > 100 µM
54 | COc1cccc(C2CC(C)(O)Oc3cc4c(cc32)OCO4)c1O (centres undefined) | inactive: 34.2 µM
55 | C#Cc1cccc(N2C(=O)CCC2=O)c1 | inactive: 18.8 µM
56 | CCOC(=O)CCC(NC(=O)c1ccc(Nc2cnc3ccc(C(F)(F)F)cc3n2)cc1)C(=O)OCC (centres undefined) | inactive: 27.7 µM
57 | O=C1NC(=O)C2C(=O)NC(=O)C1C2c1c(Cl)cccc1Cl (centres undefined) | inactive: > 100 µM
58 | CCOC(=O)/C=C/n1c2ccccc2c(=O)c2ccccc21 | inactive: > 100 µM
59 | S=C(NN=C1NCCCCN1)Nc1ccccc1 | inactive: > 100 µM
60 | COc1cc(NS(C)(=O)=O)ccc1N1Cc2c[nH]c3ccc4nccc1c4c23 | inactive: 27.6 µM
61 | COCC(/N=C\N1CCCc2ccccc2[C@@H]1CCCCl)C(C)(C)C (some centres undefined) | inactive: 4.47 µM
62 | CCN1CCC(O)(/C=C/c2ccc(C)cc2)C(C(=O)/C=C/c2ccc(C)cc2)C1 (centres undefined) | inactive: 13 µM
63 | Cc1cc2nc(-c3c(F)cccc3F)n(Cc3c(F)cccc3F)c2cc1C | inactive: 21.7 µM
64 | O=[N+]([O-])c1ccc(N=P(c2ccccc2)(c2ccccc2)c2ccccc2)n2nnnc12 | inactive: > 100 µM
65 | CC[C@@H](/C=C\CCC(=O)C[C@H](O)CCC=C(C)C)O[Si](C(C)C)(C(C)C)C(C)C | inactive: > 100 µM
66 | ClCCCN1CCN(CCCl)CC1 | inactive: 780 µM
67 | O=C1CCC(=O)N1CNc1cccc(NCN2C(=O)CCC2=O)c1 | inactive: > 100 µM
68 | O=c1c2c3c(sc2nc2n1sc1nc4sc5c(c4c(=O)n12)CCCC5)CCCC3 | inactive: > 87.9 µM
69 | CCN(CC)CC(C)(C)C(=O)/C=C/c1ccc(/C=C/C(=O)C(C)(C)CN(CC)CC)cc1 | inactive: 1.5 µM

Row | SMILES | GI50
70 | S=C(N/N=C\C=N/NC(=S)N1CCCCCC1)N1CCCCCC1 | inactive: > 70 µM
71 | COc1ccc2c(c1)CCN=C2Cc1ccccc1CCCl | inactive: 60.3 µM
72 | CCOC(=O)C1C(=O)C(C(=O)OCC)C(c2ccccc2)N(C)C1c1ccccc1 (centres undefined) | inactive: > 100 µM
73 | O=c1c(C(c2ccc(/C=C/c3ccccc3)cc2)c2c(O)oc3ccccc3c2=O)c(O)oc2ccccc12 | inactive: 37 µM
74 | COc1cc2cc(C(=O)N3CC(CCl)c4c3cc(N)c3ccccc43)[nH]c2c(OC)c1OC (centres undefined) | active: < 0.01 µM
75 | COC(=O)[C@H]1C=C[C@H](OC2OC(COC(C)=O)C(OC(C)=O)C(OC(C)=O)C2OC(C)=O)n2c(=O)n(-c3ccccc3)c(=O)n21 (some centres undefined) | inactive: 16 µM
76 | CCOC(=O)NNC(=O)NCCCCNC(=O)NNC(=O)OCC | inactive: > 100 µM
77 | CC(=O)OC(C)(C)/N=N/c1ccc(Br)cc1 | inactive: 44.9 µM
78 | N=C1/C(=C/c2ccc(F)cc2)C(=O)N=C2SC=NN12 | inactive: > 100 µM
79 | Cn1c(=O)c2nc3c4ccccc4c(=O)n(C)c3nc2n(C)c1=O | inactive: > 100 µM
80 | CC(C)CCc1n[nH]c(=O)n1/N=C\c1ccccc1 | inactive: > 100 µM
81 | COC(=O)C1=C(O)C(C(=O)OC)[C@]2(O)[C@H](C(=O)OC)[C@H]1C[C@@H](c1ccc(C(F)(F)F)cc1)[C@H]2C(=O)OC (some centres undefined) | inactive: 2.84 µM
82 | Cn1c(=O)c2nc(COCc3nc4c(=O)n(C)c(=O)n(C)c4[nH]3)[nH]c2n(C)c1=O | inactive: > 100 µM
83 | NCC(=O)Nc1ccc(S(=O)(=O)O)c2cc(S(=O)(=O)O)cc(S(=O)(=O)O)c12 | inactive: > 100 µM
84 | CO/C=C/C=C(\C#N)C(=O)OC | inactive: > 100 µM
85 | Nc1ncnc2c1ccn2COC(CO)CO | inactive: > 100 µM
86 | O=C(NCCCNCCCCNCCCNC(=O)c1cc(-c2ccccc2)nc2ccccc12)c1cc(-c2ccccc2)nc2ccccc12 | inactive: 3.61 µM
87 | CCCC(=O)N(C)/N=N/c1ccc(C(=O)OCC)cc1 | inactive: > 100 µM
88 | CC1=C(C(=S)Nc2ccc(Cl)c(C(=O)OC(C)C)c2)SCCO1 | inactive: 24.9 µM
89 | O=[N+]([O-])c1cc(Cl)ccc1S(=O)(=O)c1ccccc1 | inactive: > 100 µM
